Measurements reported in PubChem BioAssay AID651820 (National Center for Advancing Translational Sciences (NCATS), 2012).
In all, about 340,000 compounds went through this assay and about 12,000 (3.5%) were called active. Inconclusive means that the source gave no clear call. Such entries were picked first, then a sample of the others. Calls follow the shape of the dose curve; as a rule, active = well fitted inhibition curve with a large enough effect; inconclusive = small, poorly fitted or top-dose-only effect, or another doubt; inactive = no such curve, though single readings can be large or run the other way. Potencies of inconclusive entries are left out as doubtful fits.

Assay: qHTS Assay for Inhibitors of Hepatitis C Virus (HCV)
Settings: Huh7.5.1 HCVcc-Cre (HCVcc is cell-culture hepatitis C virus) infection, luciferase reporter, 44 h; activity change, negative = inhibition: at 41.8 µM (top of the series)
Summary of the method: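 Cells seeded at 1,000/well and cultured 4 h, then compounds added followed by HCVcc-Cre virus (~0.5 moi). After 44 h further culture, luciferase substrate was added, plates held 15 min at room temperature, and luminescence read for 15 sec.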
% is scaled to controls: 0 for no effect and ±100 for the full control effect; potency is read from the fitted curve at half-maximal effect; tags tell the direction and shape of the fitted curve.

| Structure (SMILES) | Potency | activity change, negative = inhibition |
| --- | --- | --- |
| COc1cc(C(=O)Nc2ccc3c(c2)N(C(=O)CCN(C)C)c2ccccc2CC3)cc(OC)c1OC | inconclusive [inhibitor, partial curve] |  |
| Cc1ccc(/C=C/C(=O)Nc2ccc(Oc3ccccc3)cc2)o1 | active: 11.2 µM |  |
| Cc1nc2ccccn2c1-c1csc(NCc2ccco2)n1 | inconclusive [inhibitor, full curve] |  |
| CN(C)c1ccc(C(=O)N2CCCC2)cc1 | inactive |  |
| O=S(=O)(NCc1ccncc1)c1ccc(Br)s1 | inconclusive [inhibitor, full curve] |  |
| CCO[C@@H]1OC(C(=O)Nc2ccccc2)=C[C@H](C2CC2)[C@H]1CCCO | inconclusive [inhibitor, partial curve] |  |
| Cc1ccc(NC(=O)c2cc(Cl)ccc2[N+](=O)[O-])cc1C | inconclusive [inhibitor, single point] |  |
| COc1ccccc1N1CCN(/N=C\c2cccnc2)CC1 | inactive |  |
| CCC(C(=O)NC1CCCCC1)n1c(SCc2cccc(C)c2)nc2ccncc21 (stereo unspecified) | inconclusive [inhibitor, single point] |  |
| CC(=O)CCC1CC(c2ccc(Cl)cc2)=NO1 (stereo unspecified) | active: 2.82 µM |  |
| Cc1ccc(C)c2c1cc(C)c1nnc(SCC(=O)NCc3ccc4c(c3)OCO4)n12 | inactive |  |
| COc1cc(/C=N/OCC(=O)NC2CCCCC2)ccc1OCc1ccccc1 | inconclusive [inhibitor, single point] |  |
| Cc1nn(CCS(=O)(=O)c2ccc(Cl)cc2)c(C)c1Br | inactive |  |
| O=C(c1cc(C2CC2)nn1-c1ccccc1)N1CCN(S(=O)(=O)c2cccc(F)c2)CC1 | inconclusive [inhibitor, single point] |  |
| CC1(C)Nc2ccccc2N(Cc2ccc([N+](=O)[O-])cc2)C1=O | inactive |  |
| O=C(CCCN1C(=O)c2cccc3cccc(c23)C1=O)N1CCN(c2ccccc2O)CC1 | inactive |  |
| CCOC(=O)c1c(NC(=S)N2CCN(C)CC2)sc2c1CCN(C(=O)OCC)C2 | active: 6.31 µM |  |
| CCOCCOc1cccc(C(=O)NC(C)c2ccc3ccccc3c2)c1 (stereo unspecified) | inactive |  |
| CSc1nc(N2CCN(C)CC2)c2ccccc2n1 | inactive |  |
| Cc1nc(C)c(-c2nnc(-c3ccc(C(C)(C)C)cc3)o2)cc1C(=O)NN | inconclusive [inhibitor, partial curve] |  |
| Cc1nn(Cc2ccccc2Cl)c(C)c1NC(=O)c1cc(-c2ccc(F)cc2)on1 | active: 3.55 µM |  |
| C[C@H](NC(=O)c1nc[nH]c1C(=O)N[C@@H](CCCCNC(=O)OC(C)(C)C)C(=O)OC(C)(C)C)c1ccccc1 | inconclusive [inhibitor, single point] |  |
| CC1CC2=C(CC1/C=N/NC(N)=S)C(C)(C)CCC2 (stereo unspecified) | active: 6.31 µM |  |
| O=C(COC(=O)c1cc([N+](=O)[O-])ccc1NCCO)Nc1ccc2c(c1)OCO2 | active: 11.2 µM |  |
| Cc1ccc(Nc2nc(N)nc(CN3CCN(Cc4ccc5c(c4)OCO5)CC3)n2)cc1C | inconclusive [inhibitor, single point] |  |
| CCN(CC)S(=O)(=O)c1cccc(NC(=O)CC2CCCC2)c1 | inactive |  |

| Structure (SMILES) | Potency | activity change, negative = inhibition |
| --- | --- | --- |
| Cc1cc(NC(=O)CCN2CCCCC2)ccc1Br | inactive |  |
| CCC(=O)N(c1ccc(C(=O)O)cc1)c1nc(-c2ccc(OC)cc2)c(C)s1 | inactive |  |
| Cc1ccc2nc(Cl)c(/C=N/NC(=O)[C@H]3C[C@@H]3c3ccccc3)cc2c1 | inconclusive [inhibitor, single point] |  |
| Cc1cc(=O)[nH]c(SCC(=O)Nc2cccc(S(=O)(=O)N3CCOCC3)c2)n1 | inactive |  |
| CCOC(=O)c1c2c(n(C)c1C)C(=O)C(=O)c1ccc(Br)cc1-2 | inconclusive [inhibitor, single point] |  |
| Cc1ccc(C(C)C)c(OCCn2c(=O)oc3ccccc32)c1 | inconclusive [inhibitor, single point] |  |
| Cc1ccc(N=Nc2ccc(O)cc2)c(Br)c1 | inactive |  |
| Cc1ccc(NS(=O)(=O)c2cccc(C(=O)NC3CCN(Cc4ccccc4)CC3)c2)cc1 | active: 12.6 µM |  |
| COc1ccc(CNCC(O)COc2ccc(C)cc2[N+](=O)[O-])cc1 (stereo unspecified) | inactive |  |
| CCCCOc1ccc(CONS(=O)(=O)c2ccc(NC(C)=O)cc2)cc1Cl | inconclusive [inhibitor, single point] |  |
| Cc1ccc(S[C@@H](CCN2CC[C@H](NC(=O)OCc3ccccc3)CCC2=O)c2ccccc2)cc1 | active: 12.6 µM |  |
| Cc1[nH]cnc1C(=O)N/N=C/c1ccc([N+](=O)[O-])s1 | inconclusive [inhibitor, single point] |  |
| CN1OC[C@@H]2CN[C@H](c3cccc(-c4ccccc4)c3)C[C@@H]21 | inconclusive [inhibitor, single point] |  |
| NC(=O)[C@@H]1CC2(CC(c3cccc(NC(=O)COc4ccc(Cl)cc4)c3)=NO2)CN1C(=O)COc1ccc(Cl)cc1 (stereo partly specified) | active: 10 µM |  |
| O=C(NCC(=O)N1CC=C(c2ccccc2)CC1)c1ccccc1Br | inconclusive [inhibitor, single point] |  |
| C[C@@H](C(=O)Nc1ccc2ccccc2c1)[C@H]1C[C@]1(C)[C@H](NP(=O)(c1ccccc1)c1ccccc1)c1ccccc1 |  | inactive: 5.23% [at 8.37 µM] |
| CC1(C)Cc2c(cnn2-c2ccccc2)-c2c1c1ccccc1n2CC(O)CBr (stereo unspecified) | inconclusive [inhibitor, single point] |  |
| COCCNC(=S)N(CCc1c(C)[nH]c2ccccc12)Cc1cccnc1 | inactive |  |
| CCCC(=O)Nc1ccc(Cl)c(NC(=O)c2cccnc2)c1 | inactive |  |
| Cc1ccc(C(=O)N2CCN(c3cccc(Cl)c3)CC2)cc1C | inconclusive [inhibitor, single point] |  |
| CO/N=C/C(C#N)c1ncc(C(F)(F)F)cc1Cl (stereo unspecified) | inactive |  |
| CCOP(=O)(OCC)C(Nc1ccc(C(=O)O)cc1)c1ccccc1 (stereo unspecified) | inactive |  |
| COc1cc(SC)ccc1C(=O)OCC(=O)N1CC(=O)Nc2ccccc21 | active: 10 µM |  |
| c1ccc(-c2cc3c(ccc4nonc43)nn2)cc1 | inactive |  |
| O=C1CCC(=O)N1CCSC(=S)N1CCOCC1 | inactive |  |
| CCOc1ccccc1NC(=O)c1ccc(OCC(=O)N2CCOCC2)c(OC)c1 | inactive |  |

| Structure (SMILES) | Potency | activity change, negative = inhibition |
| --- | --- | --- |
| CCN(CC)c1ccc(/C=N/NC(=S)NCc2ccc(OC)cc2)cc1 | inconclusive [inhibitor, single point] |  |
| COc1cc(NC(=S)NCc2cccnc2)cc(OC)c1 | inactive |  |
| CN(C)CCCN(C(=O)c1nc2ccccc2s1)c1nc2ccc(F)cc2s1 | inconclusive [inhibitor, single point] |  |
| COc1ccc(C)cc1NC(=O)NNS(=O)(=O)c1ccc(NC(C)=O)cc1 | inactive |  |
| COc1ccccc1CNC(=O)C1CCN(C(=O)c2sccc2-n2cccc2)CC1 | inconclusive [inhibitor, partial curve] |  |
| Fc1ccc(-n2c(-c3ccc4ccccc4n3)n[nH]c2=S)cc1Cl | inactive |  |
| COc1ccc([C@H]2CC(=O)C=C(c3cccc(Cl)c3O)C2)cc1OC | inactive |  |
| O=c1c(Cl)c(N2CCN(c3ccccc3)CC2)cnn1C12CC3CC(CC(C3)C1)C2 | inconclusive [inhibitor, single point] |  |
| O=C(NCc1ccco1)c1ccccc1-c1nc(-c2ccc(F)cc2)no1 | inconclusive [inhibitor, single point] |  |
| CC(/C=N/NC(=O)c1cccc([N+](=O)[O-])c1)=C\c1ccccc1 | inconclusive [inhibitor, partial curve] |  |
| COc1ccccc1NC(=O)c1c(Nc2ccccc2C)sc(C(=O)Nc2cccc(Cl)c2)c1N | active: 12.6 µM |  |
| COc1ccc(CCNc2nc(-c3cccc(NC(C)=O)c3)cs2)cc1OC | inconclusive [inhibitor, single point] |  |
| Cc1ccc(NC(=O)CN2C(=O)NC3(CCc4ccccc43)C2=O)cc1S(=O)(=O)N1CCCCC1 (stereo unspecified) | inconclusive [inhibitor, single point] |  |
| CCOc1ccc(C2=Nn3c(CC)nnc3SC2)cc1 | inactive |  |
| O=C(NCCC(=O)N1CCN(C(=O)c2ccco2)CC1)c1ccccc1Cl | inactive |  |
| O=[N+]([O-])c1ccc2[nH]c3c(c2c1)CCCC3 | active: 11.2 µM |  |
| Cc1ccc2c(CN3CCN(S(=O)(=O)c4ccc5c(c4)OCCO5)CC3)cc(=O)oc2c1C | active: 12.6 µM |  |
| COc1ccc(CCNC(=O)c2cc(=O)c3cc(C)ccc3o2)cc1OC | active: 22.4 µM |  |
| CCc1nnc2sc(-c3ccc(NC(=O)c4ccc5c(c4)OCCO5)cc3)nn12 | inconclusive [inhibitor, partial curve] |  |
| CC1CCc2ccccc2N1CC(=O)Nc1cccc(S(=O)(=O)N2CCCC2)c1 (stereo unspecified) | active: 31.6 µM |  |
| CCOC(=O)N1CCN(c2nc(-c3ccccc3)c3ccccc3n2)CC1 | inconclusive [inhibitor, single point] |  |
| COC(=O)C1=C(C)N(c2ccc(C)c(C)c2)/C(=C/c2ccco2)C1=O | inconclusive [inhibitor, single point] |  |
| C(=N\Nc1nc(N2CCCCC2)nc(N2CCCCC2)n1)/c1c[nH]c2ccccc12 | inconclusive [inhibitor, partial curve] |  |
| Cc1noc(C)c1S(=O)(=O)Nc1ccc2c(c1)C(=O)N([C@H](C)CO)C[C@H](C)[C@@H](CN(C)C(=O)Nc1ccc3c(c1)OCO3)O2 | inconclusive [inhibitor, single point] |  |
